According to the supplement of paper PMC4967469:
A lower IC50 marks a more sensitive line; a limit (>, <) means that the fit lies beyond the doses tested. AUC sums up the same curve from the lowest dose to the 256-fold higher top dose; the more sensitive the line, the further below 1. For some of these results: A top dose marked as inferred was calculated from the reported fits. For some of these results: Drugs with an entry number were screened twice under separate entries, and the two screens often disagree.

Tests used:
Assay in all cases: Viability of human cancer cell lines after 72 h of drug (GDSC screen)
AR-42 = compound: CC(C)[C@H](C(=O)Nc1ccc(C(=O)NO)cc1)c1ccccc1 [AR-42]; conditions: top dose 5.12 µM; top dose inferred
Experimental: (§1)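 Human cancer cell lines in 384-well plates, medium with 10% serum, drug for 72 h over a 256-fold dose range (nine 2-fold or five 4-fold steps up to the top dose). Adherent lines were fixed and stained with the nucleic acid dye Syto60, suspension lines read with resazurin; signal relative to control wells, capped at 0 and 100%. One two-parameter sigmoid per drug and line, fitted in a mixed model over all curves with the slope shared within a line.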

GDC0941 = compound: CS(=O)(=O)N1CCN(Cc2cc3nc(-c4cccc5[nH]ncc45)nc(N4CCOCC4)c3s2)CC1 [GDC0941]; conditions: top dose 4 µM; screen: GDSC drug entry 1527; top dose inferred
Experimental: as §1

CEP-701 = compound: C[C@]12O[C@H](C[C@]1(O)CO)n1c3ccccc3c3c4c(c5c6ccccc6n2c5c31)CNC4=O [CEP-701]; conditions: top dose 2 µM; top dose inferred
Experimental: as §1

Pazopanib = compound: Cc1ccc(Nc2nccc(N(C)c3ccc4c(C)n(C)nc4c3)n2)cc1S(N)(=O)=O [Pazopanib]; conditions: top dose 8 µM
Experimental: as §1

SB 216763 = compound: Cn1cc(C2=C(c3ccc(Cl)cc3Cl)C(=O)NC2=O)c2ccccc21 [SB 216763]; conditions: top dose 10 µM; top dose inferred
Experimental: as §1

Cell Line	AUC (AR-42)	IC50 (AR-42) [nM]	AUC (GDC0941)	IC50 (GDC0941) [nM]	AUC (CEP-701)	IC50 (CEP-701) [nM]	AUC (Pazopanib)	IC50 (Pazopanib) [nM]	AUC (SB 216763)	IC50 (SB 216763) [nM]
MEL-JUSO (melanoma, adherent)	0.54	417	0.785	1930	0.698	484	0.975	> 8000	0.984	> 10000
MFE-280 (endometrium, adherent)	0.63	810	0.401	125	0.892	> 2000	0.911	> 8000	0.898	> 10000
MFE-296 (endometrium, adherent)	0.89	> 5120	0.735	1240	0.493	120	0.536	633	0.985	> 10000
MHH-ES-1 (Ewing sarcoma, adherent)	0.437	216	0.765	1450	0.591	221	0.969	> 8000	0.979	> 10000
MOG-G-CCM (glioma, adherent)	0.541	423	0.7	1010	0.562	190	0.908	> 8000	0.842	8810
Mewo (melanoma, adherent)	0.652	920	0.831	3240	0.713	571	0.923	> 8000	0.98	> 10000
NCI-H292 (lung adenocarcinoma, adherent)	0.487	292	0.494	239	0.463	97.1	0.976	> 8000	0.928	> 10000
NCI-H358 (lung adenocarcinoma, adherent)	0.516	355	0.865	> 4000	0.913	> 2000	0.892	> 8000	0.978	> 10000
NCI-H441 (lung adenocarcinoma, adherent)	0.768	2730	0.682	998	0.878	> 2000	0.965	> 8000	0.965	> 10000
NCI-H520 (lung squamous cell carcinoma, adherent)	0.562	476	0.885	> 4000	0.579	207	0.822	4870	0.987	> 10000
NCI-H596 (lung adenocarcinoma, adherent)	0.642	888	0.777	2110	0.814	1520	0.954	> 8000	0.979	> 10000
NCI-H650 (lung adenocarcinoma, adherent)	0.625	732	0.917	> 4000	0.67	393	0.983	> 8000	0.914	> 10000
NCI-H727 (lung carcinoid, adherent)	0.808	> 5120	0.898	> 4000	0.605	292	0.773	5540	0.959	> 10000
NCI-H810 (large cell lung carcinoma, adherent)	0.276	76.3	0.958	> 4000	0.747	614	0.845	5400	0.988	> 10000
NCI-H1048 (small cell lung carcinoma, adherent)	0.671	906	0.765	1320	0.554	173	0.96	> 8000	0.983	> 10000
NCI-H1435 (lung adenocarcinoma, semi-adherent)	0.821	2550	0.973	> 4000	0.992	> 2000	0.95	> 8000	0.976	> 10000
NCI-H1563 (lung adenocarcinoma, adherent)	0.794	2860	0.621	573	0.894	> 2000	0.975	> 8000	0.985	> 10000
NCI-H1568 (lung adenocarcinoma, adherent)	0.979	> 5120	0.763	1790	0.805	1320	0.967	> 8000	0.978	> 10000
NCI-H1623 (lung adenocarcinoma, adherent)	0.564	498	0.735	1390	0.872	> 2000	0.985	> 8000	0.985	> 10000
NCI-H1651 (lung adenocarcinoma, adherent)	0.577	529	0.967	> 4000	0.89	> 2000	0.916	> 8000	0.983	> 10000
NCI-H1688 (small cell lung carcinoma, adherent)	0.77	2150	0.971	> 4000	0.886	> 2000	0.952	> 8000	0.987	> 10000
NCI-H1693 (lung adenocarcinoma, adherent)	0.475	262	0.813	> 4000	0.966	> 2000	0.903	> 8000	0.969	> 10000
NCI-H1755 (lung adenocarcinoma, adherent)	0.408	172	0.707	1060	0.569	198	0.884	> 8000	0.969	> 10000
NCI-H1792 (lung adenocarcinoma, adherent)	0.866	3840	0.67	707	0.792	808	0.984	> 8000	0.956	> 10000
NCI-H2023 (lung adenocarcinoma, adherent)	0.76	2230	0.642	685	0.717	605	0.978	> 8000	0.905	> 10000

Cell Line	AUC (AR-42)	IC50 (AR-42) [nM]	AUC (GDC0941)	IC50 (GDC0941) [nM]	AUC (CEP-701)	IC50 (CEP-701) [nM]	AUC (Pazopanib)	IC50 (Pazopanib) [nM]	AUC (SB 216763)	IC50 (SB 216763) [nM]
NCI-H2029 (small cell lung carcinoma, adherent)	0.531	385	0.984	> 4000	0.911	> 2000	0.992	> 8000	0.989	> 10000
NCI-H2087 (lung adenocarcinoma, semi-adherent)	0.621	710	0.937	> 4000	0.882	> 2000	0.909	> 8000	0.97	> 10000
NCI-H2291 (lung adenocarcinoma, adherent)	0.984	> 5120	0.594	501	0.801	1450	0.983	> 8000	0.983	> 10000
NCI-H2342 (lung adenocarcinoma, adherent)	0.868	> 5120	0.601	488	0.941	> 2000	0.712	2120	0.986	> 10000
NCI-H2347 (lung adenocarcinoma, adherent)	0.552	458	0.81	2670	0.873	> 2000	0.912	> 8000	0.981	> 10000
NCI-H2405 (lung adenocarcinoma, adherent)	0.688	1140	0.829	2860	0.845	1680	0.933	> 8000	0.88	> 10000
NCI-H2452 (mesothelioma, adherent)	0.96	> 5120	0.752	1560	0.793	1110	0.907	> 8000	0.935	> 10000
NUGC-4 (stomach, adherent)	0.629	728	0.782	1670	0.89	> 2000	0.894	> 8000	0.988	> 10000
NY (osteosarcoma, adherent)	0.954	> 5120	0.875	3840	0.682	401	0.716	2020	0.961	> 10000
OE19 (oesophagus, adherent)	0.776	2330	0.883	> 4000	0.865	> 2000	0.979	> 8000	0.943	> 10000
OE33 (oesophagus, adherent)	0.638	834	0.751	1540	0.872	> 2000	0.962	> 8000	0.893	> 10000
OSC-20 (head and neck, adherent)	0.562	488	0.683	905	0.696	498	0.902	> 8000	0.98	> 10000
OVCAR-5 (ovary, adherent)	0.483	286	0.658	754	0.721	607	0.939	> 8000	0.982	> 10000
OVISE (ovary, adherent)	0.664	1070	0.789	2450	0.636	337	0.98	> 8000	0.963	> 10000
OVMIU (ovary, adherent)	0.536	410	0.632	637	0.782	1060	0.963	> 8000	0.961	> 10000
OVTOKO (ovary, adherent)	0.672	1110	0.596	494	0.559	189	0.943	> 8000	0.974	> 10000
PA-TU-8902 (pancreas, adherent)	0.527	385	0.702	1030	0.702	513	0.957	> 8000	0.98	> 10000
PA-TU-8988T (pancreas, adherent)	0.791	2320	0.785	1720	0.712	497	0.932	> 8000	0.94	> 10000
PANC-03-27 (pancreas, adherent)	0.698	1100	0.765	1380	0.683	391	0.927	> 8000	0.989	> 10000
PANC-04-03 (pancreas, adherent)	0.885	> 5120	0.798	3480	0.908	> 2000	0.975	> 8000	0.978	> 10000
PANC-08-13 (pancreas, adherent)	0.791	3050	0.733	1420	0.912	> 2000	0.961	> 8000	0.965	> 10000
PC-3 [JPC-3] (lung adenocarcinoma, adherent)	0.577	557	0.87	> 4000	0.722	666	0.904	> 8000	0.98	> 10000
PC-14 (lung adenocarcinoma, adherent)	0.477	279	0.916	> 4000	0.692	402	0.895	7890	0.99	> 10000
PCI-4B (head and neck, adherent)	0.477	278	0.803	1870	0.495	122	0.98	> 8000	0.978	> 10000
